Experimental data as given in paper PMC12820563, “FoxP3 forms a head-to-head dimer in vivo and stabilizes its multimerization on adjacent microsatellites”.
The list shows a part of the results.

target: T1, MBP-FoxP1dN (Mus musculus, UniProt P58462 326-579); assay: PD-seq (MBP pull-down with sequencing); 20 mM Tris-HCl pH 7.5, 100 mM NaCl, 1.5 mM MgCl2, 0.4 uM protein, 0.1 uM dsDNA library, 30 min, room temperature, amylose pull-down; high values mean tight binding; settings: protein: recombinant; tags: His6-MBP; chain copies: 2; dsDNA, one strand shown
T1 sequence: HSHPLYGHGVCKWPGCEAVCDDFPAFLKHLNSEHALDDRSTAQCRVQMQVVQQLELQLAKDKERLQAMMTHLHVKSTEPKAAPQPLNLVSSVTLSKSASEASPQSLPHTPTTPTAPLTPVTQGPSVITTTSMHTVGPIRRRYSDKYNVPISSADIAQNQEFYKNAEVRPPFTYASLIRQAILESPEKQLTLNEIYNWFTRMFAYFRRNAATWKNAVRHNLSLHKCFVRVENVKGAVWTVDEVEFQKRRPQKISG
Method in brief: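 The N-terminus-lacking fragment of mouse FoxP3 or FoxP1 carried a His6-MBP tag and was expressed in E. coli. At 0.4 µM it was incubated with 0.1 µM Klenow-filled degenerate double-stranded DNA library for 30 min at room temperature in Tris pH 7.5 buffer with NaCl and MgCl2, and complexes were caught on amylose resin, washed three times, released with proteinase K, PCR-barcoded and Illumina-sequenced. Binding is reads-per-million enrichment of pull-down over input with replicates pooled.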

Point of comparison: “GATGATTGTTCTCCCAGCTGATGAATTCCATGTCTCGAGTAAACAAATTTTCCTAATCTTTCTGTTCAAGCGCCATCTAC”, binding signal 0.818 RPM ratio (pull-down/input). Against it:
- GATGATTGTTCTCCCAGCTGATGAATTCACCGTCTCGAGTAAACAAATTTTCCTAATCTTTCTGTTCAAGCGCCATCTAC — higher, 0.859 RPM ratio (pull-down/input)
- GATGATTGTTCTCCCAGCTGATGAATTGTTAATCTCGAGTAAACAAATTTTCCTAATCTTTCTGTTCAAGCGCCATCTAC — higher, 1.08 RPM ratio (pull-down/input)
- GATGATTGTTCTCCCAGCTGATGAATTTTAGAAGTCGAGTAAACAAATTTTCCTAATCTTTCTGTTCAAGCGCCATCTAC — higher, 0.862 RPM ratio (pull-down/input)
- GATGATTGTTCTCCCAGCTGATGAATTTCACCTCTCGAGTAAACAAATTTTCCTAATCTTTCTGTTCAAGCGCCATCTAC — lower, 0.796 RPM ratio (pull-down/input)
- GATGATTGTTCTCCCAGCTGATGAATTATCGTGATCGAGTAAACAAATTTTCCTAATCTTTCTGTTCAAGCGCCATCTAC — higher, 1.04 RPM ratio (pull-down/input)
- GATGATTGTTCTCCCAGCTGATGAATTCACCACCTCGAGTAAACAAATTTTCCTAATCTTTCTGTTCAAGCGCCATCTAC — higher, 0.866 RPM ratio (pull-down/input)
- GATGATTGTTCTCCCAGCTGATGAATTAATTGAATCGAGTAAACAAATTTTCCTAATCTTTCTGTTCAAGCGCCATCTAC — higher, 0.962 RPM ratio (pull-down/input)
- GATGATTGTTCTCCCAGCTGATGAATTCGGTCGCTCGAGTAAACAAATTTTCCTAATCTTTCTGTTCAAGCGCCATCTAC — lower, 0.816 RPM ratio (pull-down/input)
- GATGATTGTTCTCCCAGCTGATGAATTCCTGCCTTCGAGTAAACAAATTTTCCTAATCTTTCTGTTCAAGCGCCATCTAC — higher, 0.874 RPM ratio (pull-down/input)
- GATGATTGTTCTCCCAGCTGATGAATTTTGTTTCTCGAGTAAACAAATTTTCCTAATCTTTCTGTTCAAGCGCCATCTAC — higher, 1.71 RPM ratio (pull-down/input)
- GATGATTGTTCTCCCAGCTGATGAATTATATTGCTCGAGTAAACAAATTTTCCTAATCTTTCTGTTCAAGCGCCATCTAC — higher, 1.21 RPM ratio (pull-down/input)
- GATGATTGTTCTCCCAGCTGATGAATTCTCATCGTCGAGTAAACAAATTTTCCTAATCTTTCTGTTCAAGCGCCATCTAC — higher, 0.855 RPM ratio (pull-down/input)
- GATGATTGTTCTCCCAGCTGATGAATTTATGCGCTCGAGTAAACAAATTTTCCTAATCTTTCTGTTCAAGCGCCATCTAC — higher, 1.08 RPM ratio (pull-down/input)
- GATGATTGTTCTCCCAGCTGATGAATTTGTTCTATCGAGTAAACAAATTTTCCTAATCTTTCTGTTCAAGCGCCATCTAC — higher, 1.16 RPM ratio (pull-down/input)
- GATGATTGTTCTCCCAGCTGATGAATTATGCTCTTCGAGTAAACAAATTTTCCTAATCTTTCTGTTCAAGCGCCATCTAC — higher, 1.03 RPM ratio (pull-down/input)
- GATGATTGTTCTCCCAGCTGATGAATTTAACGCATCGAGTAAACAAATTTTCCTAATCTTTCTGTTCAAGCGCCATCTAC — higher, 1.16 RPM ratio (pull-down/input)
- GATGATTGTTCTCCCAGCTGATGAATTGGAAACTTCGAGTAAACAAATTTTCCTAATCTTTCTGTTCAAGCGCCATCTAC — higher, 0.827 RPM ratio (pull-down/input)
- GATGATTGTTCTCCCAGCTGATGAATTATGCGCGTCGAGTAAACAAATTTTCCTAATCTTTCTGTTCAAGCGCCATCTAC — higher, 1.08 RPM ratio (pull-down/input)
- GATGATTGTTCTCCCAGCTGATGAATTCCACATCTCGAGTAAACAAATTTTCCTAATCTTTCTGTTCAAGCGCCATCTAC — higher, 0.827 RPM ratio (pull-down/input)
- GATGATTGTTCTCCCAGCTGATGAATTTTCTGCATCGAGTAAACAAATTTTCCTAATCTTTCTGTTCAAGCGCCATCTAC — higher, 1.28 RPM ratio (pull-down/input)
- GATGATTGTTCTCCCAGCTGATGAATTTCACCGGTCGAGTAAACAAATTTTCCTAATCTTTCTGTTCAAGCGCCATCTAC — lower, 0.751 RPM ratio (pull-down/input)
- GATGATTGTTCTCCCAGCTGATGAATTTAAACACTCGAGTAAACAAATTTTCCTAATCTTTCTGTTCAAGCGCCATCTAC — higher, 1.12 RPM ratio (pull-down/input)
- GATGATTGTTCTCCCAGCTGATGAATTATAAGAGTCGAGTAAACAAATTTTCCTAATCTTTCTGTTCAAGCGCCATCTAC — higher, 0.897 RPM ratio (pull-down/input)
- GATGATTGTTCTCCCAGCTGATGAATTTGGAGTCTCGAGTAAACAAATTTTCCTAATCTTTCTGTTCAAGCGCCATCTAC — higher, 0.826 RPM ratio (pull-down/input)
- GATGATTGTTCTCCCAGCTGATGAATTCCAATCCTCGAGTAAACAAATTTTCCTAATCTTTCTGTTCAAGCGCCATCTAC — lower, 0.754 RPM ratio (pull-down/input)
- GATGATTGTTCTCCCAGCTGATGAATTGATCTGCTCGAGTAAACAAATTTTCCTAATCTTTCTGTTCAAGCGCCATCTAC — higher, 0.94 RPM ratio (pull-down/input)
- GATGATTGTTCTCCCAGCTGATGAATTATTTGTCTCGAGTAAACAAATTTTCCTAATCTTTCTGTTCAAGCGCCATCTAC — higher, 1.66 RPM ratio (pull-down/input)
- GATGATTGTTCTCCCAGCTGATGAATTCCCGAGTTCGAGTAAACAAATTTTCCTAATCTTTCTGTTCAAGCGCCATCTAC — lower, 0.811 RPM ratio (pull-down/input)
- GATGATTGTTCTCCCAGCTGATGAATTAACCTTGTCGAGTAAACAAATTTTCCTAATCTTTCTGTTCAAGCGCCATCTAC — higher, 0.862 RPM ratio (pull-down/input)
- GATGATTGTTCTCCCAGCTGATGAATTTCTTTAGTCGAGTAAACAAATTTTCCTAATCTTTCTGTTCAAGCGCCATCTAC — higher, 0.819 RPM ratio (pull-down/input)
- GATGATTGTTCTCCCAGCTGATGAATTTATGGGCTCGAGTAAACAAATTTTCCTAATCTTTCTGTTCAAGCGCCATCTAC — higher, 0.937 RPM ratio (pull-down/input)
- GATGATTGTTCTCCCAGCTGATGAATTTGCTGTCTCGAGTAAACAAATTTTCCTAATCTTTCTGTTCAAGCGCCATCTAC — higher, 1.22 RPM ratio (pull-down/input)
- GATGATTGTTCTCCCAGCTGATGAATTCCACGTGTCGAGTAAACAAATTTTCCTAATCTTTCTGTTCAAGCGCCATCTAC — higher, 0.85 RPM ratio (pull-down/input)
- GATGATTGTTCTCCCAGCTGATGAATTGCCGTAATCGAGTAAACAAATTTTCCTAATCTTTCTGTTCAAGCGCCATCTAC — higher, 1.39 RPM ratio (pull-down/input)
- GATGATTGTTCTCCCAGCTGATGAATTACTCACGTCGAGTAAACAAATTTTCCTAATCTTTCTGTTCAAGCGCCATCTAC — higher, 1.01 RPM ratio (pull-down/input)
- GATGATTGTTCTCCCAGCTGATGAATTGAAACACTCGAGTAAACAAATTTTCCTAATCTTTCTGTTCAAGCGCCATCTAC — higher, 0.982 RPM ratio (pull-down/input)
- GATGATTGTTCTCCCAGCTGATGAATTATGAGTTTCGAGTAAACAAATTTTCCTAATCTTTCTGTTCAAGCGCCATCTAC — higher, 1.04 RPM ratio (pull-down/input)
- GATGATTGTTCTCCCAGCTGATGAATTGGCGCTGTCGAGTAAACAAATTTTCCTAATCTTTCTGTTCAAGCGCCATCTAC — higher, 0.849 RPM ratio (pull-down/input)
- GATGATTGTTCTCCCAGCTGATGAATTCAATGTATCGAGTAAACAAATTTTCCTAATCTTTCTGTTCAAGCGCCATCTAC — higher, 1.19 RPM ratio (pull-down/input)
